According to PMC4336329 (PLoS ONE, 2015):
About 14,000 (4.5%) of roughly 310,000 compounds showed an effect of 50% or more. The effect is printed as a negative number. Some of the results follow.

The molecules below were run against human ether-à-go-go-related gene (hERG) potassium channel (human, UniProt Q12809) (assay: primary screen, population patch clamp on CHO cells stably expressing hERG).
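Note: peak tail current of the secondary pulse compared with the same well before compound.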

Chain of human ether-à-go-go-related gene (hERG) potassium channel (Q12809 whole entry, looked up): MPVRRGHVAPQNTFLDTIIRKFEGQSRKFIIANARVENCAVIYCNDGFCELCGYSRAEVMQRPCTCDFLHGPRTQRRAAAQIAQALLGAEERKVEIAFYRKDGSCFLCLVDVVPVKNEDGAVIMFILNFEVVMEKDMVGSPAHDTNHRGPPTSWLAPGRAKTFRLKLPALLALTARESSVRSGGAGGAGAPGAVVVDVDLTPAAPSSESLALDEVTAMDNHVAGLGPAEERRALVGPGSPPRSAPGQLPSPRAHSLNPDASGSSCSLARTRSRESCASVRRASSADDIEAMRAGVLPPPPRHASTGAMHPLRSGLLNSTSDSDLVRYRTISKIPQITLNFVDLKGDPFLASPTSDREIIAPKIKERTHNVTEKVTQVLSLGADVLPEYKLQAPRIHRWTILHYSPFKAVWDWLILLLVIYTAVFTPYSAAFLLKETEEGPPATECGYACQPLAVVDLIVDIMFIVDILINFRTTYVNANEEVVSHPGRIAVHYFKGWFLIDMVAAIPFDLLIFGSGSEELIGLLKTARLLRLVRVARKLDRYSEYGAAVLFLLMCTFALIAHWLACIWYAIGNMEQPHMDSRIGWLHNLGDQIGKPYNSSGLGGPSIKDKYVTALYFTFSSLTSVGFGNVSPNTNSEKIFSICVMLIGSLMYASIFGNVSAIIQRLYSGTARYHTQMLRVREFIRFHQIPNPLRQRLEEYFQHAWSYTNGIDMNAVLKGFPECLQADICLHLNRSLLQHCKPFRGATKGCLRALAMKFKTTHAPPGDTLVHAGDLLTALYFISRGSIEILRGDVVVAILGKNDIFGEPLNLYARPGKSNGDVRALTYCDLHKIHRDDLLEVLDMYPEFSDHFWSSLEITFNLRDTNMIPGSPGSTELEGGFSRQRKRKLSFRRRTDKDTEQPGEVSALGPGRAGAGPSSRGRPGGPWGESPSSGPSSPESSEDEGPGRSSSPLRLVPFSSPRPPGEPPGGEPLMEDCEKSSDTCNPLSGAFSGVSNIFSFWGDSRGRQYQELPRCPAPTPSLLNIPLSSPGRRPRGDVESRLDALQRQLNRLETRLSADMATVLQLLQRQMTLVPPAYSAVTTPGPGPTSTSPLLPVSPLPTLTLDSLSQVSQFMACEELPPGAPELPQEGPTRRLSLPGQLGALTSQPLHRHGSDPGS

SMILES | hERG current change (%, negative = inhibition) at 10uM [%]
Cc1c(N=Nc2ccc(O)cc2)c(=O)n(-c2ccccc2)n1C | -1.09
CCOC(=O)c1cnn(-c2cc(C)c3ccccc3n2)c1N | -1.77
CCN(CC(=O)Nc1ccccc1OC)C(=O)Cn1cnc2ccccc2c1=O | 4.21
O=C(O)c1cc2cc(F)ccc2[nH]1 | 16.2
O=C(c1cc(-c2cccs2)nn1-c1ccccc1)N1CCN(S(=O)(=O)c2ccccc2)CC1 | -6.31
COC(=O)[C@@H](NC(=O)NCc1ccccc1Cl)C(C)C | 12.3
COc1ccc(CCNC(=O)Cn2nc(C)n3nc(-c4ccccc4)cc3c2=O)cc1OC | 2
Cc1cc(C)nc(SCC(=O)Nc2ccc(N3CCOCC3)cc2)n1 | -6.86
c1ccc(-c2nc3ccccc3s2)nc1 | 4.67
COc1cccc(N2CCN(C(=O)C3CCCN(S(=O)(=O)c4ccc5c(c4)oc(=O)n5C)C3)CC2)c1 (stereo not shown) | -17
CCOC(=O)c1c(NC(=O)Cn2nnc3ccccc32)sc2c1CCC(C)C2 (stereo not shown) | -5.4
CC(C)(C)NC(=O)NC(=O)COC(=O)c1cc[n+]([O-])cc1 | 1.63
Cc1ccsc1/C=C1\SC(N)=NC1=O | 1.92
Br.OCCCn1c(-c2ccccc2)csc1=Nc1ccccc1 | -38.1
CCOc1ccccc1CNCc1ccc(C(=O)O)cc1.Cl | 5.91
COc1cccc2cc(-c3csc(CCn4nc(C)cc4C)n3)c(=O)oc12 | -40.9
NC(=S)c1cnn2c(-c3cccc(C(F)(F)F)c3)ccnc12 | 14.2
CC(=O)Nc1ccc(S(=O)(=O)Nc2ccc(-c3ccc4nnc(C)n4n3)cc2)cc1 | -7.02
Cc1cc(C)c(NC(=O)CSc2nnc(CNC(=O)c3ccco3)o2)c(C)c1 | 6.37
CCC(C)C(=O)Nc1nc(C)c(-c2csc(Nc3ccc(Cl)cc3)n2)s1 (stereo not shown) | 12.4
CCN1C(=O)C(O)(CC(=O)c2cc(C)ccc2C)c2ccccc21 (stereo not shown) | 7.64
N/C(=N\c1nc2c(c(=O)[nH]1)CCC2)Nc1ccccc1C(F)(F)F | 7.27
Cn1c(=O)[nH]c(=O)c2c1nc(CN1CCOCC1)n2Cc1ccccc1 | -15.7
Cc1cccc(C)c1-n1c(=O)n(Cc2ccccc2)c(=O)c2[nH]cnc21 | 9.14
CCOC(=O)c1[nH]c(C)c(C(=O)OCc2ccc(C)cc2)c1C | 19.2
